# In the supplement of paper PMC11417369:
# The list shows a part of the results.
# Test system: PfHDP1 homeodomain (GST-tagged)
# Test: gcPBM binding intensity (ln(normalized median fluorescence intensity)); higher = stronger DNA binding
# Method in brief: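 The binding buffer was 1× PBS containing 1% milk, 0.2 mg/ml BSA, 0.5% salmon testes DNA and 0.03% Triton X-100. In it, GST-tagged P. falciparum DNA-binding domains expressed in E. coli were applied for 1 h to an Agilent 4 × 180k array of primer-extended double-stranded 36-bp intergenic genomic probes plus negative controls. Binding intensity, read with Alexa488 anti-GST antibody and a 488 nm scan, is the highest Masliner-normalised natural-log median intensity across replicate spots of either probe orientation.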
row,Sequence,gcPBM binding intensity (ln)
1,ATACAAAAAGTAAAAAGTACTTAACTAAATATATAA [XGTACX_site2335],6.39
2,TTTTCAATATATTAATGTACGAATACGCAAATAAGA [XGTACX_site1613],7.6
3,TTAATAAATAAAAATGCACACAGTTAACATGTTGAA [CACACA_site1200],9.16
4,GCACATAAATATATGACACACACACCGATTATATAT [CACACA_site9003],6.75
5,AAAAAAAAAAAAAAAACACACAAACATCAAATTATT [CACACA_site5083],6.59
6,ATAATAATTTAATACATACACACGTATATCTTTTTT [CACACA_site2041],6.66
7,ATTAAAAAAATTAAAAGTACACATATTTCAATGATA [XGTACX_site5606],6.32
8,TAAGTTATATGTATATGTACTTATATATATATATAT [XGTACX_site5402],9.31
9,AAAATTAAAAAGAACACACAAATATATCTATAATAA [CACACA_site7660],6.43
10,TAAAAAAAAAAAAAAACACACATATAAATATATATA [CACACA_site1243],6.45
11,TGTGTTCATCTATGCACACGCATATATATTATTGTT [CACACA_site5985],9.64
12,TAATCGAAACAAAGAACATGCAAACATATACCTATA [TGCATGCA_site894],6.3
13,CAAAATTTATGTAAAAGTACAAAAATATAGAAAGAT [XGTACX_site1122],6.99
14,AATATAATATAAGGATCACACACAAACACCCATATA [CACACA_site8084],7.01
15,TTTTATTCCTTCTTTGCACACGTTTAAAAATATATA [CACACA_site2899],10.3
16,ATTGCATATAATGGCACACATAAATCCATAATATAT [CACACA_site297],6.5
17,TGTGGTTACATGTGCACACACTTATTTCGTTCTTAT [CACACA_site4907],10.3
18,TAAATATATATATACACACACATACACAAAAAAAAA [CACACA_site3580],6.87
19,TTTATATATATATATATATATAATAAATGATACACA [TGCATGCA_negctrl_site392],6.89
20,TATTTTTTTTCTTATACACACCATGCATCAAACTAA [CACACA_site5208],7.76
21,TTTGCACCGTTTAAGTGTACAGAATTATGACATATA [XGTACX_site6735],10.3
22,TCAAAAATATTCTGGAGTACCTTTTTAAAGGTATAG [XGTACX_site6893],6.09
23,ATGACTCTCAAGTTTGCACACATTTATATTTTTTAA [CACACA_site2605],10.5

row,Sequence,gcPBM binding intensity (ln)
1,TATACATACCATAATGCATGTAAGAACAAATAACTG [TGCATGCA_site264],6.52
2,AAAAAAAAAAAAAAGGTGCATACTTTGAATTAATAT [GTGCAC_site9401],7.91
3,AATATAAATAATATATGTACATATATATATATATAT [XGTACX_site1021],9.2
4,AAAGTATTCTTTACACGTACATATATATAAATATAA [XGTACX_site7557],6.65
5,AATATAGATATAAAAAGTACATTATATATATATATA [XGTACX_site6899],8.95
6,TTTGTATATATTAATGTACACACATGCGTATGTTCG [CACACA_site9193],6.71
7,AGAATTGTTGTTAAAGAATTCTTTTTTATCCTTCCC [CACACA_negctrl_site1820],6.45
8,ATATATATATATGAATCACACACAAAAAATATAGAG [CACACA_site9298],9.01
9,ATAAAATAATGAAAAACACACATTTTTATTTGTATA [CACACA_site3369],6.18
10,AAGATTATAAATATATGTACATAAATATATTATATA [XGTACX_site8056],6.47
11,ATTGTTTTTTTTTCTTTGTGGAATGAATGAATATAT [XGTACX_negctrl_site603],6.92
12,AATAACATGTTATATACACACATTATGAAGTCTTCA [CACACA_site746],6.48
13,ATAATACTACCTACATGTACTTATATATAAATGAAT [XGTACX_site3417],7.09
14,TTTTTTTTTTCAATGGCACACATTTTAGATTTATGC [CACACA_site1074],6.18
15,GTTTTAACAAAATTAGTGCATTTATCAATTATATAA,8.23
16,AAAGAATCAAGAATAGTGCAAATATGTATAACCTTT,9.08
17,ACATCAAGCGGACACACACACACACCGACAGACACA [CACACA_site4361],6.77
18,GTATATCATATTTCATGTACACAAAAAAATAAAAAT [XGTACX_site704],7.06
19,ACAAAATTTACAAAATGTACAAAATTTACAAAGTAT [XGTACX_site6463],6.19
20,ATATATTTGATAAGAGTGCACAAATACATACATACA [GTGCAC_site9704],9.65
21,TATATATATTATATATGTACATATTATATATATATA [XGTACX_site7300],8.49
22,TATATATATAAACACACACACATATATATATATATA [CACACA_site4584],9.34
23,TTTAAAATACAGAAGGTGCATTTAACATATTTGTAT,8.79

row,Sequence,gcPBM binding intensity (ln)
1,AAAAAAAAAAAATGCACACATATATTTCCATATACA [CACACA_site1471],9.96
2,ATATATATATATATATGTACTAATTAATATTTCGAG [XGTACX_site580],9.33
3,AATATATATTTCTAAGATAAAACCCAAGGATAAAAA [CACACA_negctrl_site735],6.44
4,AACATATTTTTTCTTAAACACACACCGATATATATA [CACACA_site8919],6.92
5,TCTGTAAATATGTATACACACATATCTGATCAATAT [CACACA_site5743],6.98
6,TTTTTTATGATTAACACACACACAAAAAAAAAAAAA [CACACA_site4130],6.55
7,TCATGTAACCATTCATGTACTCAAAAAAAAAAAAAA [XGTACX_site1027],6.32
8,TTTTATATATATATATATATATATATATATGTATAT [CACACA_negctrl_site173],7.85
9,AAATGAAAGAACAGCACACATATATATTATATATAA [CACACA_site2002],6.63
10,AAAAAAAAAACAAATACACACGCACCCAAAAAAAAA [CACACA_site8166],7.1
11,AAAACACGCGGACACACACACACACGCCCACATATA [CACACA_site7105],6.99
12,AACATAAATTACTTTTTACACACTAATATAAAATAC [CACACA_site8297],6.54
13,AATTGCTCGATATATGCACACAGTTTTGTTATTTTT [CACACA_site8465],10.5
14,ACTTTCAAGGATGTACGTACATATGTATTTTATAAC [XGTACX_site6714],6.75
15,ATTTCATTAAAGATTACATGCAATTCTATATTATTT [TGCATGCA_site260],6.47
16,AATTAATTTATTTTATAAATAGTTAGATCGTCATAA [GTGCAC_negctrl_site660],6.33
17,AGGTCATACATAAAATGTACATATATATAAATATAT [XGTACX_site7147],6.54
18,ACAAGAATACACCACGCACACACACTAGAGAAAAAA [CACACA_site9276],7.42
19,TGAACACCCAAATACACACACTCAAAAAAAAAAAAG [CACACA_site5467],6.34
20,ATAAAAATAAAAGACGCATGTTCTTAAAATAAGAAC [TGCATGCA_site189],6.03
21,GTGTGATCTTTTGAAAGTACATTTTTTTTTTTTTTT [XGTACX_site6311],6.33
22,AAACAAAATGGTAACACACACATATATATATATATA [CACACA_site1939],9.37
23,ATATATATATATAATGCACACATTATGAATTATGTA [CACACA_site3384],10.8

row,Sequence,gcPBM binding intensity (ln)
1,TTATATATATGTAATTGTACTTTTAATTTTTTTTTA [XGTACX_site4357],6.26
2,TAATTTTTTTTAAATACACACTGAAATGTGAATTTT [CACACA_site4476],6.17
3,TATTTTATAATAGGCACACATATAAAAATATATATA [CACACA_site4127],6.57
4,TAATAAAGTATTTTGCGTACTTATTTTATTCTTCTA [XGTACX_site2095],6.12
5,TGGCATATATATAAATGTACTTTCTTTCTATCTGTT [XGTACX_site8483],6.36
6,ATTGTGTGAACAAAATGTACATTTTCTCTACATTAA [XGTACX_site1333],6.49
7,TTTAAAATATTTTCTTGTACGAAGGAACATTTCTTA [XGTACX_site4013],6.41
8,AAATACTATATCAAGCGTACTTATTTCATGGTAATA [XGTACX_site7878],6.24
9,GTGCCTTTAAAAAAAAGTACAAAAAAGAACGAATTA [XGTACX_site3714],6.66
10,AAAAAAAAAAAAAGCACACACACATATGAGTATATA [CACACA_site4682],6.82
11,TATATATATATATATTGTACATTTTTTTTTTTTTTT [XGTACX_site7891],9.21
12,TATGTAAAGAGTAAGGGTACATGTATAATACGGCTC [XGTACX_site1283],7.3
13,TTTTCATTAAATATATATGCATACCATATGTACATT [GTGCAC_negctrl_site539],6.96
14,ATAATAAATAAAATAACACACATATATAGATATATA [CACACA_site6224],6.39
15,TATATTCTTATTATTGCATGCTGCACGAAGATTTTC [TGCATGCA_site831],7.5
16,TTTATATAAAAAAATTGTACATATTTATTATAAACA [XGTACX_site2124],6.22
17,TGTATGCATATTTGATGTACGCACATATACTAATTT [XGTACX_site3159],7.17
18,TTTAATTATAAGATAACACACAAAAAAAATAAAATA [CACACA_site254],6.93
19,GTATGTTTGTTATGCACACAAATGCATCTTATTTCC [CACACA_site2690],10.8
20,TATTTAATTACATGAACACACATTATGTATTTTTAA [CACACA_site2962],6.33
